# Results reported in ChEMBL document CHEMBL1201862, “PubChem BioAssay data set” (2004).
# Test system: NCI-H322M
# Test: NCI tumour cell line growth inhibition, 48 h
row,SMILES,GI50
1,Nc1nc(O)c([N+](=O)[O-])c(NCCOCP(=O)(O)O)n1,inactive: > 100 µM
2,O=[N+]([O-])c1ccc2ncccc2c1CCc1c([N+](=O)[O-])ccc2ncccc12,inactive: > 100 µM
3,O=C(/C(=C/c1ccc(O)cc1)c1ccccc1)c1ccccc1,inactive: 17.6 µM
4,O=S(=O)([N-]c1nc2ccccc2nc1-[n+]1ccccc1)c1ccccc1,inactive: > 100 µM
5,COc1cccc(C2CC(=O)c3cc(N4CCCC4)ccc3N2)c1 (stereo not given),active: 0.0518 µM
6,O=C1NC(c2cccc3ccccc23)Nc2ccc(Cl)cc21 (stereo not given),active: 0.631 µM
7,CC(C)CCC1(CCN)C(=O)NC(=O)NC1=O,inactive: > 100 µM
8,Oc1ccc(/N=C/c2ccc(/C=N/c3ccc(O)cc3)cc2)cc1,inactive: 15.5 µM
9,COc1cc(C2C3=C(COC3=O)Oc3cc4c(cc32)OCO4)ccc1O (stereo not given),active: 0.579 µM
10,O=c1[nH]cnc2cccc(Cl)c12,inactive: > 100 µM
11,Cn1c2c(c3ccccc31)CC(=O)N1CCCC(C1)CC21OCCO1 (stereo not given),inactive: > 100 µM
12,Brc1ccc(-c2ccc(-c3ccc(Br)s3)s2)s1,inactive: > 100 µM
13,O=C1C2C=CC1C1C(=O)OC(=O)C21 (stereo not given),inactive: > 100 µM
14,S=C(N/N=C/c1ccccn1)Nc1ccc(Cl)cc1,active: 0.239 µM
15,CCOC(=O)C[C@@]12CCCN[C@]1(C)CCc1ccccc12,inactive: > 100 µM
16,CCOC(=O)c1ccc(Nc2nc3ccccc3n3cccc23)cc1,inactive: 69.2 µM
17,CCOC(=O)c1nc2ccc(C(F)(F)F)cc2nc1Oc1ccc(F)cc1,inactive: > 100 µM
18,N#Cc1c(-c2ccccc2)cc(-c2cccs2)c(C#N)c1N,inactive: > 100 µM
19,CC(O)C(NC(=O)c1ccccc1)C(=O)N(Cc1ccccc1)Cc1ccccc1 (stereo not given),inactive: 20 µM
20,CCN(CC)c1ccc2cc3ccc(N(CC)CC)cc3[o+]c2c1,inactive: 4.92 µM
21,COC(=O)C1=C(C)C=C(N2CCOCC2)C(C(=O)OC)C1c1ccccc1 (stereo not given),inactive: > 10 µM
22,CCOC(=O)C(NCc1cccc(C(F)(F)F)c1)(NC(=O)c1ccccc1)C(F)(F)F (stereo not given),inactive: 46.7 µM
23,Cc1ccc2c(c1)CN1c3ccc(C)cc3CN2C1c1ccccc1O,inactive: > 100 µM
24,CCn1c(SCc2nnc(Nc3ccccc3)s2)nc2ccccc2c1=O,inactive: 2.75 µM

row,SMILES,GI50
1,CC(C)(C)C(=O)C(C(=O)c1ccccc1)C(=O)C(C)(C)C,inactive: > 100 µM
2,Nc1ncc2ncn(C3CCC(CO)O3)c2n1 (stereo not given),inactive: > 100 µM
3,Cc1cc(=O)oc2c(C)c(OCCCOc3ccc4c(C)cc(=O)oc4c3C)ccc12,inactive: > 100 µM
4,CS/C(c1ccccc1)=[N+](\[O-])Cc1ccccc1,inactive: > 100 µM
5,NNC(=O)c1ccc[n+](CCc2ccccc2)c1,inactive: > 100 µM
6,CCCCC(=O)Nc1ccc2cc(C(=O)OC)c(ON3C(=O)c4ccccc4C3=O)nc2n1,inactive: 16 µM
7,Cc1c2ccccc2c(C)n2c1nc1cc(Cl)c(Cl)cc12,inactive: > 10 µM
8,O=c1[nH]nc(-c2ccccc2)n1-c1cccc([N+](=O)[O-])c1,inactive: > 100 µM
9,O=C(c1ccccc1)c1cc(-c2ccccc2)c(-c2ccccc2)[nH]c(=O)c1=O,inactive: 45.7 µM
10,Cc1cc(S(=O)(=O)N/C(=N/N)NCCc2ccccc2)c(S)cc1Cl,inactive: 24.6 µM
11,C=CCN(c1cc(OCc2ccccc2)c2c(c1)c(C)cn2S(=O)(=O)c1ccccc1)S(C)(=O)=O,inactive: > 100 µM
12,COC(=O)CCCc1ccc2c(c1)CC1(C2)Cc2cc3c(cc2C1)CCCC3,inactive: > 100 µM
13,O=C1[C@H]2ON(c3ccccc3)C(c3ccc(Cl)cc3)[C@H]2C(=O)N1c1ccc(Cc2ccc(N3C(=O)[C@@H]4ON(c5ccccc5)C(c5ccc(Cl)cc5)[C@@H]4C3=O)cc2)cc1 (stereo not given in full),inactive: > 100 µM
14,C/C(=N/O)c1cccc(Nc2nc3ccc(Cl)cc3c3[nH]c4ccccc4c23)c1,active: 0.769 µM
15,CCOC(=O)c1sc2nc(SC)nc3c2c1NCN3C,inactive: 41.2 µM
16,COC1(OC)CC2C(=O)N(Cc3ccccc3)C1C(S(=O)(=O)c1ccccc1)C2C(C)S(=O)(=O)c1ccccc1 (stereo not given),inactive: > 100 µM
17,CCCCC1=NNC(=O)C1,inactive: > 100 µM
18,COc1nc2ccc(CNc3ccc(C(=O)O)cc3)cc2nc1OC,inactive: > 10 µM
19,COC(=O)CN1CCN(c2cccc3c2CCCC3)CC1,inactive: > 100 µM
20,COc1cccc(CCCNC(=O)Cc2ccccc2CO)c1,inactive: > 100 µM
21,CN(C)CCNc1nc2ccccc2c2c1C(=O)c1ccccc1-2,active: 0.385 µM
22,CCOC(=O)c1nc2ccccc2nc1Nc1ccc(C(=O)OC)s1,inactive: > 100 µM
23,COCCCNC(=O)C1C(=O)C(=O)N(CCCOC)C1=O (stereo not given),inactive: > 100 µM
24,CC1(c2ccccc2)N=c2[nH]cnc2=C(C(N)=O)N1 (stereo not given),inactive: > 100 µM

row,SMILES,GI50
1,CCOC(=O)CC(=O)Nc1cccc2nc[nH]c12,inactive: > 100 µM
2,c1ccc(N/N=C2\CC(c3ccccc3)Oc3ccccc32)cc1 (stereo not given),inactive: 44.6 µM
3,Cc1ccccc1N1C(N)=C(C#N)C(C#N)(C#N)C1c1ccccc1 (stereo not given),inactive: 19.5 µM
4,O=C1c2nn(-c3ccccc3)nc2C(c2ccccc2)N1c1ccccc1 (stereo not given),inactive: > 100 µM
5,N#CCC(=O)N/N=C(/C(=O)Nc1ccccc1)C1C(=O)N(c2ccccc2)N=C1N (stereo not given),inactive: > 100 µM
6,O=C1/C(=C/c2ccc(Cl)cc2)COc2ccc(Br)cc21,inactive: > 100 µM
7,N/C(=N\O)N/N=C\c1cc([N+](=O)[O-])cc([N+](=O)[O-])c1O,inactive: > 68.5 µM
8,CCOC(=O)C1=NN(c2ccc(C)cc2)C2(c3ccccc3)C=C(c3ccccc3)N(C)CCN12 (stereo not given),inactive: > 100 µM
9,COC(=O)C1=C(O)c2cc3c(cc2[C@H](c2cc(OC)c(OC)c(OC)c2)C1)OCO3,inactive: > 100 µM
10,C1=N\CCOCC/N=C/c2ccccc2OCc2cccc(n2)COc2ccccc2/1,inactive: > 25 µM
11,c1cc(-c2ccc(-c3ccc(C4=NC5CCCCC5N4)cc3)o2)ccc1C1=NC2CCCCC2N1 (stereo not given),inactive: 1.36 µM
12,CC(C)(C)C(=O)OC(N)/C=C/c1ccccc1 (stereo not given),inactive: > 100 µM
13,COc1ccc(/C=C2\CCC(C)(CN(C)C)C2=O)cc1Br (stereo not given),inactive: 30.1 µM
14,CC1(C)CC2(C)ON=C(c3ccccc3)N2c2ccccc2N1 (stereo not given),inactive: 24 µM
15,COC(=O)C1(Cc2ccccc2)Cc2cc3c(cc2C1=O)CCC3 (stereo not given),inactive: 2.35 µM
16,C[S+](C)CC(=O)c1ccc2c(c1)Sc1ccccc1O2,inactive: 8.45 µM
17,O=c1[nH]nc(Cc2ccc([N+](=O)[O-])cc2)[nH]1,inactive: > 100 µM
18,Cc1c(NC(=O)CCl)c(=O)oc2c(C)c3occc(=O)c3cc12,inactive: 13.5 µM
19,Cn1c2ccccc2n2c(=O)c3c(c(C#N)c12)CCCC3,inactive: > 100 µM
20,COc1cc(N(CCC#N)CCC#N)ccc1C(/N=N/c1ccccc1C)=N\NC(=O)c1ccc(C)cc1,inactive: > 100 µM
21,CC(C)N1CN(c2ccccc2)C2(CCN(CCCC(=O)c3ccc(F)cc3)CC2)C1=O,inactive: 4.68 µM
22,CC1CN(CCO)CCN1c1ccccc1 (stereo not given),inactive: > 100 µM
23,COc1ccc(-n2cnc3c2=NC(C)(C)NC=3C(N)=O)c(OC)c1,inactive: > 100 µM
24,COC(=O)c1ccccc1CC1Cc2cccc(C)c2C1=O (stereo not given),inactive: > 100 µM

row,SMILES,GI50
1,CCOC(=O)N1c2c(c3ccccc3n2C(=O)OCC)C(=O)C(OC)N1C(=O)OCC (stereo not given),inactive: 47.2 µM
2,C=CCc1cc(-c2cc(CC=C)c(O)c(CN(CCCl)CCCl)c2)cc(CN(CCCl)CCCl)c1O,inactive: 23.6 µM
3,O=C1NC(=O)C(COCc2ccccc2)C2=C1SCCC2 (stereo not given),inactive: > 100 µM
4,CC(C)(C)c1cc(C(OCCl)(C(F)(F)F)C(F)(F)F)c2c(c1)C(C(F)(F)F)(C(F)(F)F)OC21c2ccccc2C(=O)c2ccccc21,inactive: > 100 µM
5,COCN1C(=O)[C@@H]2C[C@@H](O)CN2C(=O)c2ccccc21,inactive: > 100 µM
6,COc1ccc(CC/N=C2\CCC(C(=O)NCCc3ccc(OC)c(OC)c3)N2)cc1OC (stereo not given),inactive: > 100 µM
7,N#C/C(=C/C=C/c1ccco1)C(N)=O,inactive: > 10 µM
8,O=C(CCC(=O)c1ccc(Cl)cc1)NO,inactive: > 100 µM
9,COC(C)(C)C1(O)CC[C@@H](C)CC1=O (stereo not given in full),inactive: > 100 µM
10,CC[C@@]1(O)C[C@H](OC2CC(N(C)C)C(OC3CC(O)C(OC4CC(O)C(O)C(C)O4)C(C)O3)C(C)O2)c2c(cc3c(c2O)C(=O)c2c(O)ccc(O)c2C3=O)[C@H]1C(=O)OC (stereo not given in full),active: 0.00906 µM
11,COC(OC)c1cc2c(cc1C=O)OCO2,inactive: > 100 µM
12,CO[C@H]1C=CO[C@@]2(C)Oc3c(C)c(O)c4c(O)c(c(CN5CCN(C)CC5)c(O)c4c3C2=O)NC(=O)/C(C)=C\C=C[C@H](C)[C@H](O)C(C)[C@@H](O)C(C)[C@H](OC(C)=O)[C@@H]1C (stereo not given in full),inactive: > 83.2 µM
13,O=C(NC1C=CCC2C(=O)N(c3ccccc3)C(=O)C12)OCc1ccccc1 (stereo not given),inactive: > 100 µM
14,CCOC(=O)C(Sc1ccccc1)c1c(OC)cc(=O)oc1/C=[N+](/[O-])c1ccc(N(C)C)cc1 (stereo not given),inactive: 37.2 µM
15,NC(=O)c1csc(CCCCCCc2nc(C(N)=O)cs2)n1,inactive: > 100 µM
16,COC(=O)[C@@H]1CN(C(=O)Cc2ccccc2)C(=O)N1,inactive: > 100 µM
17,CC(NCCS(=O)(=O)O)C(=O)O (stereo not given),inactive: > 100 µM
18,CCOP(=O)(O)C(Nc1ccc(/N=N/c2ccccc2)cc1)c1cccc(C(Nc2ccc(/N=N/c3ccccc3)cc2)P(=O)(O)OCC)c1 (stereo not given),inactive: 31.3 µM
19,COc1ccc(CC2C3=C(CCN2C(=O)C2CCC2)CC2(CC3)OCCO2)cc1O (stereo not given),inactive: 26.9 µM
20,c1ccc2c(NCCCCCCCCNc3c4ccccc4nc4ccccc34)c3ccccc3nc2c1,active: 0.188 µM
21,Oc1cccc(-c2nc3cc(F)ccc3s2)c1,inactive: 20.9 µM
22,N=C(N)N/N=C/c1c(-c2ccc(Cl)cc2)nc2sccn12,inactive: 3.67 µM
23,CN(C)Cc1cc(/C=C/C(=O)c2ccc(Cl)c(Cl)c2)cc(CN(C)C)c1O,inactive: 14.1 µM

#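 The compound was tested at five concentrations on cells cultured in 96-well plates, with a 48-hour exposure period. GI50 marks 50% less growth.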 Active and inactive are the calls of the source. Rule as the data show it: active = GI50 up to about 1.1 µM and inactive = higher.
